In ChEMBL document CHEMBL1201862, “PubChem BioAssay data set” (2004):
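Cells were grown in 96-well plates and exposed to each compound for 48 hours at five concentrations; endpoints were interpolated linearly between bracketing concentrations, or set to the highest concentration if not reached. Here, GI50 denotes the concentration required for 50% inhibition of growth.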 Active and inactive are the calls of the source. No stated cut-off is given here; in the data, active = GI50 up to about 1.1 µM and inactive = higher.

Each compound was assayed on NCI-H322M (assay: NCI anticancer screen, dose series, 48 h).
`COC(=O)c1ccc(NCc2cc(O)ccc2O)cc1O` was tested, and the GI50 was inactive: 13.5 µM. In the case of `C/C(=N\N=C(/S)N1CC2CCC(CC2)C1)c1cccc[n+]1[O-]`, the GI50 is reported as inactive: 9.16 µM. In the case of `CCN(CC)c1ccc(C2NC(=O)c3ccccc3N2)cc1` (stereo not drawn), the GI50 is reported as inactive: 5.09 µM. In the case of `CCOC(=O)C(Cc1ccc(O)cc1)Nc1nc(=O)c2c(=O)oc(Cl)cc2o1` (stereo not drawn), the GI50 is reported as inactive: 17.1 µM. `Nc1ccc(C(=O)N/C(=C\c2cccc([N+](=O)[O-])c2)c2nc3cc(Cl)ccc3[nH]2)cc1` was tested, and the GI50 was inactive: > 100 µM. For `CCN(CC)C(=O)C/C(C)=N/NC(=O)c1ccncc1`, the GI50 was inactive: > 100 µM. With `CNC(=S)c1nnsc1N` the GI50 was inactive: > 100 µM. In the case of `CC(CO)CCC(O)C(C)(O)C1CCC2(O)C3=CC(=O)C4CC(O)C(O)CC4(C)C3CCC12C` (stereo not drawn), the GI50 is reported as inactive: > 100 µM. With `C/N=c1\ss/c(=N\C(=S)N(C)C)n1C` the GI50 was inactive: > 100 µM. `C=CCC1C(=O)Nc2cccc3ncn(c23)C1=O` (stereo not drawn) was tested, and the GI50 was inactive: > 100 µM. With `CCOC(=O)/C=C(\C)c1ccc(C)cc1C` the GI50 was inactive: 81.5 µM. `CN(C)CCC(=O)[C@@]1(O)CC[C@H]2[C@@H]3CC=C4C[C@@H](O)CC[C@]4(C)[C@H]3CC[C@@]21C` was tested, and the GI50 was inactive: 28.7 µM. In the case of `CC1(c2ccc(Cl)cc2)c2ccccc2C(=O)N1CCCN1C(=O)c2ccccc2C1=O` (stereo not drawn), the GI50 is reported as inactive: 34.8 µM. In the case of `CCCC[C@H]1CCN2C[C@@H](O)[C@@H](O)[C@H]2[C@@H]1O`, the GI50 is reported as inactive: > 100 µM. In the case of `COc1ccc(-n2c(-c3ccccc3)cc(-c3cccs3)c2-c2cccs2)cc1`, the GI50 is reported as inactive: > 100 µM. In the case of `CC1(C)Oc2ccc3c(=O)cc(-c4ccccc4)oc3c2C1C(=O)O` (stereo not drawn), the GI50 is reported as inactive: > 100 µM. In the case of `COC(=O)CC(=O)NCC1=CCC(=O)CC1`, the GI50 is reported as inactive: > 100 µM. `CCC1C(C)c2c([nH]c3ccccc23)C2C(=O)N(c3ccccc3)C(=O)C21` (stereo not drawn) was tested, and the GI50 was inactive: 22.2 µM. For `CCCCCCCCCCCCCCCCOC(=O)C(C(=O)OCCCCCCCCCCCCCCCC)[N+](C)(C)CCOC(C)=O`, the GI50 was inactive: 15.6 µM. With `COc1ccc(NC(=O)C/C(C)=N\N=C(N)N)c([N+](=O)[O-])c1` the GI50 was inactive: > 100 µM. With `O=[N+]([O-])c1ccc(Cl)c(/C=N/C23CC4CC(CC(C4)C2)C3)c1` the GI50 was inactive: > 10 µM. In the case of `COc1ccc(/C=c2/sc3n(c2=O)NC(c2ccc(Cl)cc2)NN=3)cc1` (stereo not drawn), the GI50 is reported as inactive: > 100 µM. For `Cc1c(/N=N/c2ccccc2)c(C)n(C2OC(CO)C(O)C(O)C2O)c(=S)c1C#N` (stereo not drawn), the GI50 was inactive: 56.6 µM. For `O=C(/C=C/c1ccc(OCCSCCCCCCCCCCSCCOc2ccc(/C=C/C(=O)c3ccc(Cl)cc3)cc2)cc1)c1ccc(Cl)cc1`, the GI50 was inactive: > 100 µM. `O=C(Nc1cccc(C(F)(F)F)c1)C(=O)C(C(=O)c1ccc2ccccc2c1)C1OC(=O)c2ccccc21` (stereo not drawn) was tested, and the GI50 was inactive: 8.36 µM. In the case of `[N-]=[N+]=C1C(=O)C2CC3CC(C2)CC1C3`, the GI50 is reported as inactive: > 100 µM. For `O=C(N/N=C\c1ccc([N+](=O)[O-])cc1)Nc1ccc2ccccc2c1`, the GI50 was inactive: 92.9 µM. For `N#CC(C#N)/N=N/c1ccc(-c2nc3ccccc3o2)cc1`, the GI50 was inactive: 23.3 µM. For `CC(=O)OC1COC(n2c3ccccc3c3ccc4c5ccccc5[nH]c4c32)C(OC(C)=O)C1OC(C)=O` (stereo not drawn), the GI50 was inactive: 52 µM. With `COc1cc(CNNC(N)=S)cc(OC)c1OC` the GI50 was inactive: > 100 µM. `CC(C)c1ccccc1NC(=O)CCC(=O)NN` was tested, and the GI50 was inactive: > 100 µM. For `COC(=O)c1cc(Cl)ccc1NC(=O)C1CCCCC1`, the GI50 was inactive: 91.8 µM. `O=C1CC(=O)NC(NNS(=O)(=O)c2ccccc2)=N1` was tested, and the GI50 was inactive: > 100 µM. With `O=C1Nc2ccc(S(=O)(=O)NCCO)cc2/C1=C1/Nc2ccccc2C1=O` the GI50 was inactive: 6.52 µM. With `CC(NC1CCCC[C@H]1O)c1ccccc1` (stereo partly drawn) the GI50 was inactive: > 100 µM. `C#CCOCn1cnc2c(Sc3c([N+](=O)[O-])ncn3C)ncnc21` was tested, and the GI50 was inactive: > 100 µM. With `CNC(=O)OCc1nc(SC2CCCCO2)n(C)c1COC(=O)NC` (stereo not drawn) the GI50 was inactive: > 100 µM. In the case of `CC(=O)Oc1ccc2[nH]c3c(C)c4cccc-4ccc3c2c1`, the GI50 is reported as inactive: 2.29 µM.
